The supplement of paper PMC4604168 (melanoma cell lines)
The list shows a part of the results. Many values rest on one well or one pass, so single values are uncertain.

What was measured:
Experiment in all cases: cell count relative to DMSO control; melanoma cells; higher = more viable cells
Conditions in all cases: library dose: low library concentration; 72 h
MZ2-MEL = test system: MZ2-MEL
MeWo = test system: MeWo
RPMI7951 = test system: RPMI7951
RVH-421 = test system: RVH-421
SkMel28 = test system: SkMel28
SkMel2 = test system: SkMel2
SkMel30 = test system: SkMel30
UACC62 = test system: UACC62
WM115 = test system: WM115
WM1716 = test system: WM1716
WM1745 = test system: WM1745
WM3526 = test system: WM3526
WM3619 = test system: WM3619
WM451Lu = test system: WM451Lu
SkMel5 = test system: SkMel5
UACC257 = test system: UACC257
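Further: cell number obtained by counting DAPI-stained nuclei in high-throughput microscope images with image analysis software, screen run in 1,536-well plates.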

Compound | cell count (MZ2-MEL) | cell count (MeWo) | cell count (RPMI7951) | cell count (RVH-421) | cell count (SkMel28) | cell count (SkMel2) | cell count (SkMel30) | cell count (UACC62) | cell count (WM115) | cell count (WM1716) | cell count (WM1745) | cell count (WM3526) | cell count (WM3619) | cell count (WM451Lu) | cell count (SkMel5) | cell count (UACC257)
CN(c1ncccc1CNc1nc(Nc2ccc3c(c2)CC(=O)N3)ncc1C(F)(F)F)S(C)(=O)=O + Nc1ccn([C@@H]2O[C@H](CO)[C@@H](O)C2(F)F)c(=O)n1 [gemcitabine] (first compound 0.08 µM, partner dose 0.0004 µM) | 84.6% | 90.1% | 80.3% | 108% | 73.4% | 93.6% | 103% | 86.5% | 77.1% | 76.5% | 69.1% | 78.2% | 98.8% | 73.1% | – | –
CCCS(=O)(=O)Nc1ccc(F)c(C(=O)c2c[nH]c3ncc(Cl)cc23)c1F + CCCCCCCCCCCC1=C(O)C(=O)C=C(O)C1=O [Embelin] (first compound 0.08 µM, partner dose 1.2 µM) | 90.7% | 112% | 104% | 88.7% | 97.9% | 103% | 97.4% | 78.2% | 101% | 108% | 96% | 78.8% | 101% | 132% | 118% | 95%
CCCS(=O)(=O)Nc1ccc(F)c(C(=O)c2c[nH]c3ncc(Cl)cc23)c1F + CCN(CC)CCCCNc1ncc2cc(-c3cc(OC)cc(OC)c3)c(NC(=O)NC(C)(C)C)nc2n1 [PD173074] (first compound 0.08 µM, partner dose 0.1 µM) | 97.1% | 103% | 97.8% | 91% | 90% | 106% | 86.2% | 62.9% | 98.4% | 116% | 97.3% | 80.8% | 115% | 177% | 119% | 93.7%
C=C(c1ccc(C(=O)O)cc1)c1cc2c(cc1C)C(C)(C)CCC2(C)C [Bexarotene] + Cn1cncc1[C@@](N)(c1ccc(Cl)cc1)c1ccc2c(c1)c(-c1cccc(Cl)c1)cc(=O)n2C [tipifarnib] (first compound 2 µM, partner dose 0.01 µM) | 105% | 93.2% | 86.3% | 94% | 86.2% | 72.1% | 123% | 83.4% | 102% | 84.3% | 98.2% | 84% | 72.1% | 81.7% | 101% | 113%
C=C(c1ccc(C(=O)O)cc1)c1cc2c(cc1C)C(C)(C)CCC2(C)C [Bexarotene] + CC(C)CCN1c2nc(Nc3cc(F)c(O)c(F)c3)ncc2N(C)C(=O)C1C [BID1870] (first compound 2 µM, partner dose 0.2 µM) | 99.3% | 83.6% | 64.2% | 90.9% | 71.2% | 83.5% | 91.5% | 80.5% | 107% | 64.9% | 84.6% | 79.8% | 112% | 78.7% | 96.8% | 108%
NC1(c2ccc(-c3nc4ccn5c(=O)[nH]nc5c4cc3-c3ccccc3)cc2)CCC1 + O=C(CCCCCCC(=O)Nc1ccccc1)NO [vorinostat] (first compound 0.4 µM, partner dose 0.08 µM) | 97.1% | 76.2% | 97.9% | 86.9% | 58.8% | 78.9% | 145% | 70.3% | 79% | 109% | 99.7% | 72.5% | 69.8% | 74.7% | 85.4% | 73.2%
CCCS(=O)(=O)Nc1ccc(F)c(C(=O)c2c[nH]c3ncc(Cl)cc23)c1F + O=C(O)c1ccc(-c2c[nH]c3ncc(-c4ccccc4)cc23)cc1C1CCCC1 [GSK650394] (first compound 0.08 µM, partner dose 0.16 µM) | 82.5% | 88.5% | 98.2% | 89.5% | 82.8% | 87.9% | 92.1% | 63.3% | 87.9% | 101% | 83.9% | 65.9% | 68% | 91.6% | 115% | 65.7%
NC1(c2ccc(-c3nc4ccn5c(=O)[nH]nc5c4cc3-c3ccccc3)cc2)CCC1 + COc1ccc(COc2ccc(Cc3cnc(N)nc3N)cc2OC)cc1 [GW2580] (first compound 0.4 µM, partner dose 1 µM) | 95.8% | 83% | 76.7% | 93.6% | 60.3% | 78.9% | 81.6% | 71.5% | 70.3% | 94.2% | 82.1% | 56% | 76.9% | 90.4% | 83.5% | 76.6%
CCCS(=O)(=O)Nc1ccc(F)c(C(=O)c2c[nH]c3ncc(Cl)cc23)c1F + O=c1cc(-c2cccc3c2Sc2ccccc2S3)oc(N2CCOCC2)c1 [KU55933] (first compound 0.08 µM, partner dose 1 µM) | 93.9% | 111% | 119% | 99.6% | 77.7% | 94.3% | 95.4% | 55.6% | 80.3% | 110% | 96.3% | 63.1% | 71.8% | 97% | 111% | 86.1%
NC1(c2ccc(-c3nc4ccn5c(=O)[nH]nc5c4cc3-c3ccccc3)cc2)CCC1 + C[C@]1(c2nc3c(C(N)=O)cccc3[nH]2)CCCN1 [Veliparib] (first compound 0.4 µM, partner dose 1.4 µM) | 97.6% | 83.2% | 88.5% | 78.3% | 50.5% | 90.1% | 86.6% | 64.9% | 69% | 89% | 89.3% | 73.1% | 89% | 98.7% | – | –
CS(=O)(=O)c1ccc(C(=O)Nc2ccc(Cl)c(-c3ccccn3)c2)c(Cl)c1 [vismodegib] + COc1cc2c(Oc3ccc4[nH]c(C)cc4c3F)ncnc2cc1OCCCN1CCCC1 [cediranib] (first compound 1 µM, partner dose 0.4 µM) | 103% | 93.2% | 125% | 82.3% | 95.7% | 96.1% | 90.5% | 98.9% | 100% | 101% | 93.6% | 95.8% | 117% | 106% | 97.6% | 110%
CS(=O)(=O)c1ccc(C(=O)Nc2ccc(Cl)c(-c3ccccn3)c2)c(Cl)c1 [vismodegib] + COc1cc2ncnc(Nc3ccc(Oc4ccccc4)cc3)c2cc1OC [SrcI1] (first compound 1 µM, partner dose 2 µM) | 90.8% | 104% | 106% | 111% | 96.7% | 106% | 109% | 96.9% | 104% | 119% | 94.9% | 99.4% | 91.4% | 107% | 95% | 97.6%
C=C(c1ccc(C(=O)O)cc1)c1cc2c(cc1C)C(C)(C)CCC2(C)C [Bexarotene] + COc1cc2ncnc(Nc3ccc(Oc4ccccc4)cc3)c2cc1OC [SrcI1] (first compound 2 µM, partner dose 2 µM) | 93.4% | 89.2% | 103% | 116% | 69.7% | 92.5% | 107% | 90.2% | 109% | 86% | 76.4% | 95.1% | 87.5% | 98.1% | 85.4% | 114%
CCCS(=O)(=O)Nc1ccc(F)c(C(=O)c2c[nH]c3ncc(Cl)cc23)c1F + CCc1ccc(CCOc2ccc(CC3SC(=O)NC3=O)cc2)nc1 [pioglitazone] (first compound 0.08 µM, partner dose 2 µM) | 83.5% | 84.3% | 117% | 87.8% | 99.2% | 106% | 73.4% | 64.1% | 101% | 128% | 94.6% | 58.8% | 60.5% | 103% | 118% | 100%
C=C(c1ccc(C(=O)O)cc1)c1cc2c(cc1C)C(C)(C)CCC2(C)C [Bexarotene] + CC(C)(C)c1cnc(CSc2cnc(NC(=O)C3CCNCC3)s2)o1 [SNS-032] (first compound 2 µM, partner dose 0.01 µM) | 110% | 94% | 91.8% | 88.2% | 73.8% | 99.8% | 96.7% | 79.6% | 114% | 87.8% | 112% | 93.9% | 105% | 86.3% | 85.5% | 72.1%
CN(c1ncccc1CNc1nc(Nc2ccc3c(c2)CC(=O)N3)ncc1C(F)(F)F)S(C)(=O)=O + O=C(O)c1ccc(-c2c[nH]c3ncc(-c4ccccc4)cc23)cc1C1CCCC1 [GSK650394] (first compound 0.08 µM, partner dose 0.16 µM) | 84.5% | 94.5% | 88.6% | 102% | 83.6% | 81.8% | 92.2% | 111% | 88% | 94.1% | 82.5% | 102% | 106% | 114% | 98.3% | 56.7%
CS(=O)(=O)c1ccc(C(=O)Nc2ccc(Cl)c(-c3ccccn3)c2)c(Cl)c1 [vismodegib] + O=C(Nc1ccccc1)c1cc([N+](=O)[O-])ccc1Cl [GW9662] (first compound 1 µM, partner dose 2 µM) | 99.2% | 94.6% | 102% | 120% | 91.4% | 99.2% | 108% | 98.9% | 103% | 102% | 108% | 112% | 62% | 94.7% | 99% | 105%
CS(=O)(=O)c1ccc(C(=O)Nc2ccc(Cl)c(-c3ccccn3)c2)c(Cl)c1 [vismodegib] + CC(=O)c1c(C)c2cnc(Nc3ccc(N4CCNCC4)cn3)nc2n(C2CCCC2)c1=O [palbociclib] (first compound 1 µM, partner dose 0.04 µM) | 90.4% | 90% | 91.5% | 106% | 110% | 82.1% | 86.8% | 80.6% | 91.2% | 87.1% | 87.9% | 81.1% | 107% | 73.3% | – | –
CS(=O)(=O)c1ccc(C(=O)Nc2ccc(Cl)c(-c3ccccn3)c2)c(Cl)c1 [vismodegib] + NC1(c2ccc(-c3nc4ccn5c(=O)[nH]nc5c4cc3-c3ccccc3)cc2)CCC1 [MK2206] (first compound 1 µM, partner dose 0.4 µM) | 101% | 82% | 99.4% | 87% | 80.9% | 91% | 78.8% | 85.4% | 76% | 91.5% | 110% | 69.7% | 82.2% | 107% | – | –
